Assay results taken from PubChem BioAssay AID1476 (National Center for Advancing Translational Sciences (NCATS), 2009).
The whole screen tested about 200,000 compounds, of which about 4,500 (2.2%) were called active. This list was built around the results that the source calls inconclusive (neither active nor inactive); the mix of calls is not that of the screen. Calls come from the whole dose curve; as a rule, active = well fitted inhibition curve with a large enough effect; inconclusive = small, poorly fitted or top-dose-only effect, or effect the other way; inactive = flat fitted curve, though single readings scatter. Potencies beside an inconclusive call are fits to weak or partial responses and may not hold up.

molecular target: Cruzipain (Trypanosoma cruzi) (UniProt P25779); assay: qHTS Assay for Promiscuous and Specific Inhibitors of Cruzain (without detergent); conditions: purified cruzain, Z-FR-AMC fluorescence, no detergent; note: nearly all actives have a fitted effect of over 40% in size;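 for max response, negative = inhibition: plate controls were enzyme without inhibitor for no effect and buffer without enzyme for full effect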
Method in brief: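 Purified cruzain at 1.5 nM, pre-incubated 15 min with compound at room temperature in 100 mM sodium acetate pH 5.5, 5 mM DTT, 0.00005% Triton X-100. Reaction started with 2 uM Z-FR-AMC; AMC fluorescence increase over 60 s gives rate.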
Potency is the fitted concentration of half-maximal effect; tags give direction and shape of the fitted curve.

UniProt P25779, sequence (P25779 whole entry, looked up): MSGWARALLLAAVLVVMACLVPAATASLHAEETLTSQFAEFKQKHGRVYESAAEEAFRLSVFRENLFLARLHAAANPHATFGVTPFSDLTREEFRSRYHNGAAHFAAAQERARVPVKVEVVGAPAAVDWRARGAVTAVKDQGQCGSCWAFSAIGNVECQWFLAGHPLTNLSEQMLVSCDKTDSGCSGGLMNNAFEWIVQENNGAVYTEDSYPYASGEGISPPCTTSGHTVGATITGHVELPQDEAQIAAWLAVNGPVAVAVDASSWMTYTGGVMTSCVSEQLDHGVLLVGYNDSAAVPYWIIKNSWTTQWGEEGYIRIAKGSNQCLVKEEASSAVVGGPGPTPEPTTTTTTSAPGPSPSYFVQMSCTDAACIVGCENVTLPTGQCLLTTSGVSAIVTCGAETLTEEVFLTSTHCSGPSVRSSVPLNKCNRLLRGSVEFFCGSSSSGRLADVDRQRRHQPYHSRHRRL

COc1ccccc1Cn1nnc2c(=O)[nH]c(C3CCN(C(=O)c4ccccc4Cl)CC3)nc21 was tested. Which Potency did it give?
Its Potency is inconclusive: 31.6 µM [activator, single point].

Which Potency does the source give for Cc1cccc(-n2c(=O)[nH]c3c(C(N)=O)nc(CC(C)C)nc32)c1 here?
The Potency was inconclusive: 39.8 µM [inhibitor, single point].

Which max response, negative = inhibition does the source give for Cc1nc2nc(NC(=O)C(C)(C)C)[nH]n2c(=O)c1Cc1ccccc1 here?
Its max response, negative = inhibition is inactive: 5.21%.

How did the Potency turn out when Cc1ccccc1OCCN1C(=O)C(=O)c2cccc(C)c21 was run?
Its Potency is inconclusive: 31.6 µM [activator, single point].

How did the Potency turn out when CC(=O)c1ccc(NC(=O)c2nc(-c3ccccc3)n(-c3ccc(Cl)cc3)n2)cc1 was run?
The Potency was active: 12.6 µM.

CCOC(=O)N1CCN(C(=O)C2CCN(S(=O)(=O)c3cc(Cl)ccc3Cl)CC2)CC1 was tested. Which Potency did it give?
Its Potency is inconclusive: 31.6 µM [activator, single point].

With COc1ccc(CNC(=O)c2ccc(-c3ccccc3)cc2)cc1 as the compound, how does the Potency read?
Its Potency is inconclusive: 39.8 µM [inhibitor, single point].

Which Potency does the source give for Cc1cc(NC(=O)CCC(=O)N(c2ccccc2)C2(C(=O)NC3CCCCC3)CCCC2)no1 here?
Its Potency is inconclusive: 39.8 µM [activator, single point].

Which max response, negative = inhibition does the source give for O=C(NCC(c1cccs1)S(=O)(=O)c1cccs1)c1ccc(Cl)cc1 (stereo not drawn) here?
Its max response, negative = inhibition is inactive: -8.5%.

With O=C(NC(=S)Nc1cc(Cl)ccc1N1CCOCC1)c1ccc(-c2cccc(Cl)c2)o1 as the compound, how does the Potency read?
Its Potency is active: 7.94 µM.

How did the Potency turn out when CCc1ccc(-n2c(N3CCN(c4cccc(Cl)c4)CC3)nc3ccccc3c2=O)cc1 was run?
The Potency was inconclusive: 10 µM [inhibitor, partial curve, poor fit].

With Cc1ccc(NC(=O)N(Cc2cc3cc(C)cc(C)c3[nH]c2=O)CC2COCCO2)cc1 (stereo not drawn) as the compound, how does the Potency read?
The Potency was inconclusive: 31.6 µM [activator, single point].

CC1CCN(c2oc(-c3ccc(COc4ccccc4)o3)nc2C#N)CC1 was tested. Which max response, negative = inhibition did it give?
The max response, negative = inhibition was inactive: -28.3%.

Which Potency does the source give for COc1ccc(CNC(=O)c2sc3nc4c(c(C(F)(F)F)c3c2N)CCC4)cc1OC here?
Its Potency is inconclusive: 25.1 µM [activator, single point].

For COC(=O)c1sc(NC(=O)COc2cccc3ccccc23)nc1C, which Potency is on record?
Its Potency is inconclusive: 39.8 µM [inhibitor, single point].

With Cc1ccccc1NC(=O)C1CCN(C(=O)c2cnn(-c3ccccc3)c2-n2cccc2)CC1 as the compound, how does the Potency read?
Its Potency is inconclusive: 39.8 µM [inhibitor, single point].

How did the Potency turn out when COc1ccc(C2=CSC(/N=C/c3ccc(F)cc3)=NN2)cc1 was run?
The Potency was active: 12.6 µM.

With CCCCCC(=O)NC(=S)Nc1ccc(Br)cc1C as the compound, how does the Potency read?
The Potency was inconclusive: 31.6 µM [inhibitor, single point].

For Cc1cc(C)c(Cn2c3ccccc3c3cnn(CC(=O)NCc4ccccn4)c(=O)c32)c(C)c1, which Potency is on record?
The Potency was inconclusive: 20 µM [activator, single point].

For CS(=O)(=O)CCC(C(=O)OCC(=O)c1ccc(Cl)cc1)N1C(=O)c2ccccc2C1=O (stereo not drawn), which Potency is on record?
The Potency was inconclusive: 39.8 µM [activator, single point].

For COc1ccc(N2CC(C)Cn3c2nc2c3c(=O)n(CCc3ccccc3)c(=O)n2C)cc1 (stereo not drawn), which Potency is on record?
The Potency was inconclusive: 39.8 µM [activator, single point].

O=C(COC(=O)c1ccc2c(c1)C(=O)N(CCc1ccccc1)C2=O)Nc1ccc(OC(F)F)cc1 was tested. Which Potency did it give?
The Potency was inconclusive: 31.6 µM [inhibitor, single point].

Cc1cc(C)c(NC(=O)CN2C(=O)c3cccnc3Oc3ccc(C)cc32)c(C)c1 was tested. Which Potency did it give?
The Potency was inconclusive: 25.1 µM [activator, single point].

For Cn1c[n+](C)cc1-c1ccc(/C(N)=N/O)cc1, which Potency is on record?
The Potency was inconclusive: 0.199 µM [inhibitor, single point].

Which Potency does the source give for CCOC(=O)c1sc2ccccc2c1S(=O)(=O)N1CCN(c2cccc(C)c2C)CC1 here?
Its Potency is active: 12.6 µM.

Which max response, negative = inhibition does the source give for Cc1cc(C)c2c(=O)cc(C(=O)Nc3ccc(S(=O)(=O)N(C)Cc4ccccc4)cc3)oc2c1 here?
The max response, negative = inhibition was inactive: -1.75%.

For Cn1c(=O)n(C)c2cc([N+](=O)[O-])c(N3CCN(S(=O)(=O)c4ccccc4)CC3)cc21, which Potency is on record?
Its Potency is inconclusive: 39.8 µM [activator, single point].

O=C(NCc1cccnc1)C(=O)NCC(c1cccnc1)N1CCN(c2ccccc2F)CC1 (stereo not drawn) was tested. Which Potency did it give?
The Potency was inconclusive: 39.8 µM [activator, partial curve].

For CCn1c(=O)cc(SCC(=O)NCc2ccccc2OC)c2ccccc21, which max response, negative = inhibition is on record?
Its max response, negative = inhibition is inactive: -15.8%.

For COc1ccc2cc(C(=O)NCc3ccc4c(c3)CCN4C(=O)c3ccccc3)[nH]c2c1, which Potency is on record?
Its Potency is inconclusive: 31.6 µM [inhibitor, single point].

CCc1ccc(S(=O)(=O)Nc2cccc(-c3ccc(N4CCC(C)CC4)nn3)c2)s1 was tested. Which Potency did it give?
Its Potency is inconclusive: 39.8 µM [inhibitor, single point].

For N=c1c(C(=O)NCc2ccc(F)cc2)cc2c(=O)n3ccccc3nc2n1CCCN1CCOCC1, which Potency is on record?
The Potency was inconclusive: 39.8 µM [inhibitor, single point].

Cn1c(N)c(C(=O)COC(=O)c2cc(-c3ccco3)nc3ccccc23)c(=O)n(C)c1=O was tested. Which Potency did it give?
The Potency was inconclusive: 39.8 µM [activator, single point].

CCCC(=O)O[C@]1(C(=O)CO)CC[C@H]2[C@@H]3CCC4=CC(=O)CC[C@]4(C)[C@H]3[C@@H](O)C[C@@]21C was tested. Which Potency did it give?
Its Potency is inconclusive: 39.8 µM [activator, single point].

How did the max response, negative = inhibition turn out when CCC(Sc1nc2nccnc2c(=O)n1Cc1ccc(F)cc1)C(=O)NC1CCCCC1 (stereo not drawn) was run?
Its max response, negative = inhibition is inactive: -3.57%.

How did the Potency turn out when CCCCOc1ccc(C2C3CN(C(=O)OCC)CC=C3C(C#N)=C(N)C2(C#N)C#N)cc1OC (stereo not drawn) was run?
The Potency was inconclusive: 25.1 µM [activator, partial curve].

CCCn1c(C)nc2c(N(CCN(C)C)Cc3ccccc3)nc(C)nc21 was tested. Which max response, negative = inhibition did it give?
The max response, negative = inhibition was inactive: 0.588%.

Which max response, negative = inhibition does the source give for CCOC(=O)C1=C(C(C)=O)C(c2cccnc2)C(C#N)=C(N)O1 (stereo not drawn) here?
Its max response, negative = inhibition is inactive: -3.33%.

Which max response, negative = inhibition does the source give for Cc1cccc(C)c1Nc1oc(-c2ccccc2)nc1-c1ccccc1F here?
Its max response, negative = inhibition is inactive: -6.44%.

For COc1ccc(OCc2ccc(-c3nc(C#N)c(N4CCN(c5cccc(Cl)c5)CC4)o3)o2)cc1, which max response, negative = inhibition is on record?
Its max response, negative = inhibition is inactive: 5.06%.

How did the Potency turn out when CCCOc1ccc(C(=O)N2CCN(c3ccc(NC(=O)CC)cc3Cl)CC2)cc1 was run?
The Potency was inconclusive: 20 µM [activator, single point].

For O=C(CSc1nc2c([nH]c3ccccc32)c(=O)n1-c1ccc(F)cc1)NC1CCCCC1, which max response, negative = inhibition is on record?
The max response, negative = inhibition was inactive: -7.9%.

For COC(=O)c1cc(OC)c(OC)cc1NC(=O)CCc1ccc(C)o1, which Potency is on record?
The Potency was inconclusive: 10 µM [activator, single point].

For COc1ccc(CCNC(=O)COc2ccc(S(=O)(=O)NC3CCCCC3)cc2Cl)cc1OC, which Potency is on record?
The Potency was inconclusive: 39.8 µM [activator, single point].

How did the Potency turn out when N#Cc1c(C(F)(F)F)cc(-c2cccs2)nc1SCC(=O)Nc1ccc(F)cc1 was run?
The Potency was inconclusive: 5.01 µM [inhibitor, single point].

Which Potency does the source give for COc1ccc(CNC(=O)c2ccc3c(c2)N(Cc2ccccc2F)C(=O)c2ccccc2S3(=O)=O)cc1 here?
Its Potency is active: 25.1 µM.

CCOc1ccc(NC(=O)c2c(NCc3sccc3C)sc3c2CCCCC3)cc1 was tested. Which max response, negative = inhibition did it give?
Its max response, negative = inhibition is inactive: 9.67%.

Which Potency does the source give for CC(=O)Nc1ccc(NC(=O)CSc2ccc(-c3ccc4c(c3)OCO4)nn2)cc1 here?
The Potency was inconclusive: 39.8 µM [inhibitor, single point].

With O=c1cc(CN2CCN(c3cccc(Cl)c3)CC2)c2cc(O)c(-c3ccccc3)cc2o1 as the compound, how does the Potency read?
The Potency was active: 7.94 µM.

How did the Potency turn out when Cc1cc(F)c(Nc2ncnc3cc(OCc4ccccc4)ccc23)cc1O was run?
Its Potency is inconclusive: 25.1 µM [inhibitor, single point].

CC(C)Cc1nnc(NC(=O)CCC(=O)N2CCN(CCOC(c3ccccc3)c3ccccc3)CC2)s1 was tested. Which Potency did it give?
Its Potency is inconclusive: 20 µM [activator, partial curve].

For O=C(Nc1ccccc1-c1nc2ccccc2[nH]1)c1sc2ccccc2c1Cl, which Potency is on record?
Its Potency is inconclusive: 6.31 µM [inhibitor, partial curve, poor fit].

Which Potency does the source give for Cc1nc2oc3c(NCc4ccccc4)ncnc3c2c2c1COC(C)(C)C2 here?
Its Potency is inconclusive: 31.6 µM [activator, single point].

With O=C1N(Cc2cccc(C(F)(F)F)c2)c2ccccc2S(=O)(=O)N1c1cccc(Cl)c1 as the compound, how does the Potency read?
Its Potency is inconclusive: 39.8 µM [inhibitor, single point].

How did the max response, negative = inhibition turn out when COc1ccc(CNC(=O)c2cc3cc(S(=O)(=O)N4CCCCC4)ccc3n2C)c(OC)c1 was run?
Its max response, negative = inhibition is inactive: -24.2%.

How did the Potency turn out when O=C1NN(c2ccccc2)C(=O)/C1=C\c1cccc(OC(=O)c2cccs2)c1 was run?
The Potency was inconclusive: 31.6 µM [activator, single point].

With COc1ccc2cc(C#N)c(SCC(=O)NNC(=O)Cc3ccccc3)nc2c1 as the compound, how does the Potency read?
Its Potency is active: 12.6 µM.

How did the max response, negative = inhibition turn out when CCOC(=O)N1CCc2c(sc(NCc3ccc(N(C)C)cc3)c2C(=O)Nc2ccc(OC)cc2)C1 was run?
Its max response, negative = inhibition is inactive: 18.3%.

How did the Potency turn out when CCOc1cc(CNC(=O)c2ccc3c(c2)N(C)C(=O)C2CCCCN32)cc(OCC)c1OCC (stereo not drawn) was run?
The Potency was inconclusive: 39.8 µM [activator, single point].

For Cc1cccc(N2CC(C)Cn3c2nc2c3c(=O)n(CC(=O)O)c(=O)n2C)c1 (stereo not drawn), which max response, negative = inhibition is on record?
The max response, negative = inhibition was inactive: -6.12%.

O=C(CC1S/C(=N/N=C/c2c[nH]c3ccccc23)NC1=O)Nc1ccccc1 (stereo not drawn) was tested. Which Potency did it give?
The Potency was inconclusive: 39.8 µM [inhibitor, single point].

For c1ccc(-c2cnn3c(-c4ccccc4)c(-c4ccccc4)nc3n2)cc1, which Potency is on record?
The Potency was inconclusive: 31.6 µM [inhibitor, single point].

Cc1ccc(-n2nc(C)c3c(C(=O)NCc4ccc(F)cc4)cc(C)nc32)cc1 was tested. Which max response, negative = inhibition did it give?
The max response, negative = inhibition was inactive: -9.02%.
